From PubChem BioAssay AID760 (NMMLSC, 2007)
The whole screen tested about 190,000 compounds, of which about 360 (0.19%) were called active. The shares of active, inactive and inconclusive entries below differ from those in the screen.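 How the source made its calls: active means GTP binding activity at least 20 points away from 100%, either lowered or raised; inconclusive means signal likely due to the compound's own green fluorescence; inactive means the rest.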

The compounds below were run against Ras-related protein Rab-2A (Canis lupus familiaris) (UniProt P61105) (assay: Rab2 wt fluorescent GTP binding changes, either direction – biochemical, dog, bead-based flow cytometry, multiplex, primary screen (AID 760;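 further: 0% = beads with excess unlabeled GTP and 100% = no-compound control corrected for plate trend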)). Details: GST-Rab2 wt beads, Bodipy-GTP binding, at 10 µM.
With Cc1cc(/C=N/NC(=O)C(=O)NCc2ccccn2)c(C)n1-c1ccccc1 the GTP binding activity was inactive: 100%.
CCOC(=O)c1cnc(SCCN2CCOCC2)nc1N was tested, and the GTP binding activity was inactive: 100%.
O=C(N/C(=C/c1cccnc1)C(=O)N1CCOCC1)c1ccccc1 was tested, and the GTP binding activity was inconclusive: 99%.
CN(C(=O)COC(=O)c1ccccc1SCC(=O)NC1CCCCCCC1)C1CCS(=O)(=O)C1 (stereo unspecified) was tested, and the GTP binding activity was inconclusive: 96%.
In the case of NC(=O)C1CCN(CCC(=O)Nc2ccc3c(c2)CCC3)CC1, the GTP binding activity is reported as inconclusive: 100%.
In the case of CCOC(=O)N1CCN(C(=O)c2nn(-c3cc(OC)cc(OC)c3)c(=O)c3ccccc23)CC1, the GTP binding activity is reported as inconclusive: 100%.
For CN(C)/C=N/c1c(C#N)cnn1-c1nc2ccccc2s1, the GTP binding activity was inactive: 96%.
With CCc1ccccc1NC(=O)N[C@@H](C)C(=O)O the GTP binding activity was inconclusive: 106%.
In the case of CN(CCCN1CCCCC1)C(=O)CCc1nnc(C2CCCCC2)o1, the GTP binding activity is reported as inactive: 99%.
In the case of CCOc1ccc(NC(=O)COC(=O)c2cccnc2)cc1, the GTP binding activity is reported as inconclusive: 102%.
For N#Cc1cnc(SCC(=O)NNC(=O)COc2cccc3ccccc23)nc1N, the GTP binding activity was inconclusive: 95%.
For Cc1ccc(CN(CC(=O)NC(C)(C)C)C(=O)CNC(=O)c2cccs2)cc1, the GTP binding activity was inconclusive: 96%.
With CCCCc1ccc(NC(=S)N2CCCC(C)C2)cc1 (stereo unspecified) the GTP binding activity was inactive: 95%.
C=CCNC(=S)N/N=C/c1ccc(C)cc1C was tested, and the GTP binding activity was inconclusive: 94%.
With CCN(CC)S(=O)(=O)c1ccc2c(c1)nc(CCC(=O)Nc1cccc(C(F)(F)F)c1)n2CC the GTP binding activity was inconclusive: 104%.
In the case of COc1cc(Cl)c(C)cc1NC(=O)c1ccc2c(SCC(=O)O)c3c(nc2c1)CCCC3, the GTP binding activity is reported as inconclusive: 83%.
O=C(Cn1c(NCCO)nc2ccccc21)NCCc1ccccc1 was tested, and the GTP binding activity was inconclusive: 102%.
With N#CC1=C(N)N(c2ncn[nH]2)C2=C(C(=O)CCC2)C1c1ccc(F)cc1 (stereo unspecified) the GTP binding activity was inactive: 102%.
In the case of O=C(CCCCCn1c(=S)[nH]c2ccc(N3CCOCC3)cc2c1=O)NCc1cccc(Cl)c1, the GTP binding activity is reported as inconclusive: 86%.
CCOC(=O)C1(Cc2ccc(Cl)cc2)CCN(C(=O)C2=NNC(=O)CC2)CC1 was tested, and the GTP binding activity was inactive: 101%.
CN(C)S(=O)(=O)c1ccc(C(=O)NNc2nc(-c3ccccc3)c3cc(Br)ccc3n2)cc1 was tested, and the GTP binding activity was inactive: 82%.
With C/C(CC(=O)Nc1cccc(Cl)c1Cl)=N\NC(=O)c1ccccc1N the GTP binding activity was inconclusive: 89%.
With COc1ccc(C(=O)Nn2c(CCC(=O)O)ccc2-c2ccc(C)cc2)cc1OC the GTP binding activity was inactive: 97%.
In the case of COc1ccc(CC(=O)NNC(=O)c2cnccn2)cc1, the GTP binding activity is reported as inconclusive: 99%.
In the case of CCCCCN(C(=O)NC(=O)Nc1ccccc1C)S(=O)(=O)c1ccccc1, the GTP binding activity is reported as inactive: 98%.
For COC(=O)CCSCC(=O)Nc1cc(C)on1, the GTP binding activity was inconclusive: 106%.
With COc1cccc(-c2c(C#N)c(N)nc3c2c(=O)nc2sccn23)c1 the GTP binding activity was inconclusive: 91%.
For C=CCNC(=O)c1cc2c(=O)n3cc(C)ccc3nc2nc1NCC1CCCO1 (stereo unspecified), the GTP binding activity was active: 78%.
In the case of CC(=O)Nc1ccc(N(C(=O)c2ccco2)C(C(=O)NC2CCCC2)c2ccc(N3CCOCC3)cc2)cc1 (stereo unspecified), the GTP binding activity is reported as inactive: 100%.
With O=C(NNC1CC(=O)N(c2cccc(Cl)c2)C1=O)c1cccs1 (stereo unspecified) the GTP binding activity was inconclusive: 102%.
For CCOC(=O)CSc1nc2sc(C)c(C)c2c(=O)n1C, the GTP binding activity was inconclusive: 101%.
For O=C(CSc1ccc2nnc(-c3ccccn3)n2n1)Nc1nccs1, the GTP binding activity was active: 62%.
With CC(C)Nc1nc(NC(C)C)nc(Nn2cnnc2)n1 the GTP binding activity was inconclusive: 96%.
For CCCc1nn(C)c(C(=O)Nc2ccc3ccccc3c2)c1Cl, the GTP binding activity was inactive: 92%.
In the case of CC(C)(C)OC(=O)N[C@@H](Cc1ccccc1)c1nnc(S(=O)(=O)Cc2cccc(F)c2)o1, the GTP binding activity is reported as inactive: 101%.
CCC1(c2ccccc2)NC(=O)N(CC(=O)Nc2cccc(C#N)c2)C1=O (stereo unspecified) was tested, and the GTP binding activity was inactive: 98%.
For CCC(C(=O)NC1CCCC1)N(C(=O)Cn1nnc(-c2ccc(C)o2)n1)c1cnc2ccccc2c1 (stereo unspecified), the GTP binding activity was inactive: 105%.
For Cc1ccc(S(=O)(=O)Oc2ccc(/C=C(/NC(=O)c3ccccc3)C(=O)O)cc2)cc1, the GTP binding activity was inconclusive: 92%.
Cc1c(Cl)c([N+](=O)[O-])nn1CC(=O)N1CCN(Cc2ccccc2)CC1 was tested, and the GTP binding activity was inactive: 97%.
With Cn1c2ccc(Cl)cc2c2nc3ccccc3nc21 the GTP binding activity was inconclusive: 85%.
In the case of CCn1cc(C(=O)O)c(=O)c2cc(F)c(N/N=C/c3ccccc3[N+](=O)[O-])cc21, the GTP binding activity is reported as active: 58%.
In the case of Fc1cccc(Cl)c1Cn1nnc(-c2ccc3c(c2)OCO3)n1, the GTP binding activity is reported as inconclusive: 94%.
Cc1cc(NC(=O)CCC2CCCCC2)no1 was tested, and the GTP binding activity was inconclusive: 103%.
With CCc1nn2cc(C(=O)c3cc(Cl)ccc3O)cnc2c1-c1ccc(F)cc1 the GTP binding activity was inconclusive: 78%.
For COc1ccc(/C=N/NC(=O)C(N)=O)c(OC)c1OC, the GTP binding activity was inconclusive: 105%.
COc1ccc(CCNc2nc(=S)[nH]c3cc(OC)c(OC)cc23)cc1OC was tested, and the GTP binding activity was active: 47%.
COc1ccc(Nc2nc(N)nc(CSC(=S)N3CCCCC3)n2)cc1 was tested, and the GTP binding activity was inconclusive: 93%.
N#Cc1c2c(c(=S)n(-c3ccccc3)c1N)CCCC2 was tested, and the GTP binding activity was inconclusive: 89%.
Cc1[nH]c2ccccc2c1CCNC(=O)c1ccc2c(c1[N+](=O)[O-])C(=O)c1ccccc1C2=O was tested, and the GTP binding activity was inconclusive: 80%.
For CCCCCC1CCC(C(=O)O)CC1 (stereo unspecified), the GTP binding activity was inconclusive: 107%.
For CN(C)CCN1C(=O)C(O)=C(C(=O)c2cc3ccccc3o2)C1c1ccccn1 (stereo unspecified), the GTP binding activity was inconclusive: 90%.
With COc1cc(/C=C/C(=O)Nc2nc3ccc(S(=O)(=O)NC(C)C)cc3s2)cc(OC)c1OC the GTP binding activity was inactive: 98%.
In the case of CCCOc1ccc(CCc2n[nH]c(=S)n2-c2ccccc2)cc1, the GTP binding activity is reported as inconclusive: 93%.
For COCCNC(=O)C(=O)c1cc(C)n(-c2ccc([N+](=O)[O-])cc2)c1C, the GTP binding activity was inconclusive: 93%.
CC(=O)Nc1ccc(SCC(=O)Nc2sccc2C#N)cc1 was tested, and the GTP binding activity was inconclusive: 91%.
For Cc1nn(-c2ccccc2)c(C)c1/C=C/C(=O)OCC(=O)N(C)C1CCS(=O)(=O)C1 (stereo unspecified), the GTP binding activity was inactive: 95%.
CCCCCNC(=O)C1CCC(Cn2c(=S)[nH]c3ccccc3c2=O)CC1 (stereo unspecified) was tested, and the GTP binding activity was inactive: 98%.
For Cc1cc(C)cc(C(=O)N(NC(=O)Nc2ccc(Cl)cc2)C(C)(C)C)c1, the GTP binding activity was inactive: 97%.
Cc1ccc(/C=C/c2nc3ccccc3[nH]2)o1 was tested, and the GTP binding activity was inconclusive: 94%.
Cc1cc(C)n2nc(SCCOc3ccccc3)nc2n1 was tested, and the GTP binding activity was inactive: 83%.
For CCN(Cc1ccccc1)S(=O)(=O)c1ccc(C(=O)N2CCN(c3nc4ccccc4s3)CC2)cc1, the GTP binding activity was inactive: 99%.
For Cc1cs/c(=N/C(=S)Nc2ccccc2)n1C, the GTP binding activity was inconclusive: 100%.
For COc1cccc2c(=O)c3cccc(N)c3[nH]c12, the GTP binding activity was inconclusive: 83%.
For Cc1ccc(Cl)c(OCCCCN(C)Cc2ccccc2)c1, the GTP binding activity was inconclusive: 103%.
In the case of COc1ccc2[nH]c3c(=O)n(Cc4ccc(C(=O)N5CCC(C(N)=O)CC5)cc4)c(=S)[nH]c3c2c1, the GTP binding activity is reported as inconclusive: 87%.
With COc1ccccc1Nc1nccc(N(C)C)c1C#N the GTP binding activity was inactive: 98%.
With COc1cccc(CNS(=O)(=O)/C=C/c2ccc3c(c2)OCO3)c1 the GTP binding activity was inactive: 93%.
For COc1ccc(-c2nnc(SCC(=O)c3cccs3)o2)cc1, the GTP binding activity was active: 60%.
For Cc1cc(C)n(Cc2cnc(N3CCOCC3)s2)n1, the GTP binding activity was inconclusive: 90%.
For C=CCNc1nc(=S)[nH]c2cc(OC)c(OC)cc12, the GTP binding activity was inconclusive: 61%.
For O=C(NCCc1ccccc1)C1CCCN(S(=O)(=O)c2cccc3nonc23)C1 (stereo unspecified), the GTP binding activity was inconclusive: 105%.
With Nc1c(S(=O)(=O)c2cccs2)c2nc3ccccc3nc2n1/N=C/c1cccc(O)c1 the GTP binding activity was active: 46%.
In the case of COc1ccc(-n2nnnc2SCC(=O)NCc2cccs2)cc1, the GTP binding activity is reported as inconclusive: 94%.
With O=C(NC1CCCC1)C(c1ccncc1)N(C(=O)c1csnn1)C1CCCC1 (stereo unspecified) the GTP binding activity was inactive: 101%.
With CC(=O)N1CCN(C(=O)CCc2c[nH]c3ccccc23)CC1 the GTP binding activity was inconclusive: 107%.
In the case of COc1ccc(C)cc1NS(=O)(=O)c1ccc(NC(=O)CN(c2cc([N+](=O)[O-])ccc2C)S(C)(=O)=O)cc1, the GTP binding activity is reported as inconclusive: 100%.
CC(C)c1ccc(C(=O)NN2C(=O)C3CCCCC3C2=O)cc1 (stereo unspecified) was tested, and the GTP binding activity was inactive: 101%.
For c1ccc(-c2nnc(SCC3CCCCO3)nc2-c2ccccc2)cc1 (stereo unspecified), the GTP binding activity was inconclusive: 91%.
For Cc1ccc(N2C(=O)c3ccccc3C2Nc2cccnc2)nc1 (stereo unspecified), the GTP binding activity was inactive: 104%.
For CCN1CCCC1CNC(=O)c1ccc(N2CCCC2=O)cc1 (stereo unspecified), the GTP binding activity was inconclusive: 99%.
In the case of N#C/C(=C\C=C\c1ccccc1[N+](=O)[O-])C(=O)NC1CCCCC1, the GTP binding activity is reported as inconclusive: 91%.
In the case of Cc1cc(=O)[nH]c(N=N/C(=N/Nc2ccc(O)cc2)c2ccccc2)n1, the GTP binding activity is reported as inconclusive: 94%.
In the case of COC(=O)CN1C(=S)N(c2ccc(OC)cc2)C(=O)/C1=C/c1ccc(OC)cc1, the GTP binding activity is reported as inconclusive: 96%.
COC(=O)c1ccc(NC(=S)NCCCn2ccnc2)cc1 was tested, and the GTP binding activity was inactive: 95%.
In the case of COc1cc(C(=O)OCC(=O)NCc2ccccc2)cc(NC(=O)c2ccco2)c1OC, the GTP binding activity is reported as inconclusive: 85%.
With CCOC(=O)c1sc2nc3c(SCC(=O)O)cc(C(=O)c4cc(F)ccc4O)cn3c(=O)c2c1C the GTP binding activity was inconclusive: 83%.
In the case of O=C(Nc1ccccc1N1CCOCC1)C1CCN(S(=O)(=O)c2ccccc2F)CC1, the GTP binding activity is reported as inactive: 97%.
With O=C(O)CCNS(=O)(=O)c1ccc2c(c1)CCCC2 the GTP binding activity was inconclusive: 93%.
O=C(O)CSc1nnc(Nc2ccccc2)n1-c1ccccc1 was tested, and the GTP binding activity was inconclusive: 93%.
In the case of CN(/N=C/c1ccc(Br)o1)C1=NS(=O)(=O)c2ccccc21, the GTP binding activity is reported as inactive: 82%.
For COC(=O)c1cc(NC(=O)c2cccc(Cl)c2)c(=O)oc1/C=C/Nc1cc(C)cc(C)c1, the GTP binding activity was inconclusive: 280%.
